Screen size: about 310,000 compounds; about 14,000 (4.5%) showed an effect of 50% or more. Effects have a minus sign here. The list shows a part of the results.
What follows are molecules tested against human ether-à-go-go-related gene (hERG) potassium channel (human, UniProt Q12809) (assay: primary screen, population patch clamp on CHO cells stably expressing hERG).
Sequence of human ether-à-go-go-related gene (hERG) potassium channel (Q12809 whole entry, looked up): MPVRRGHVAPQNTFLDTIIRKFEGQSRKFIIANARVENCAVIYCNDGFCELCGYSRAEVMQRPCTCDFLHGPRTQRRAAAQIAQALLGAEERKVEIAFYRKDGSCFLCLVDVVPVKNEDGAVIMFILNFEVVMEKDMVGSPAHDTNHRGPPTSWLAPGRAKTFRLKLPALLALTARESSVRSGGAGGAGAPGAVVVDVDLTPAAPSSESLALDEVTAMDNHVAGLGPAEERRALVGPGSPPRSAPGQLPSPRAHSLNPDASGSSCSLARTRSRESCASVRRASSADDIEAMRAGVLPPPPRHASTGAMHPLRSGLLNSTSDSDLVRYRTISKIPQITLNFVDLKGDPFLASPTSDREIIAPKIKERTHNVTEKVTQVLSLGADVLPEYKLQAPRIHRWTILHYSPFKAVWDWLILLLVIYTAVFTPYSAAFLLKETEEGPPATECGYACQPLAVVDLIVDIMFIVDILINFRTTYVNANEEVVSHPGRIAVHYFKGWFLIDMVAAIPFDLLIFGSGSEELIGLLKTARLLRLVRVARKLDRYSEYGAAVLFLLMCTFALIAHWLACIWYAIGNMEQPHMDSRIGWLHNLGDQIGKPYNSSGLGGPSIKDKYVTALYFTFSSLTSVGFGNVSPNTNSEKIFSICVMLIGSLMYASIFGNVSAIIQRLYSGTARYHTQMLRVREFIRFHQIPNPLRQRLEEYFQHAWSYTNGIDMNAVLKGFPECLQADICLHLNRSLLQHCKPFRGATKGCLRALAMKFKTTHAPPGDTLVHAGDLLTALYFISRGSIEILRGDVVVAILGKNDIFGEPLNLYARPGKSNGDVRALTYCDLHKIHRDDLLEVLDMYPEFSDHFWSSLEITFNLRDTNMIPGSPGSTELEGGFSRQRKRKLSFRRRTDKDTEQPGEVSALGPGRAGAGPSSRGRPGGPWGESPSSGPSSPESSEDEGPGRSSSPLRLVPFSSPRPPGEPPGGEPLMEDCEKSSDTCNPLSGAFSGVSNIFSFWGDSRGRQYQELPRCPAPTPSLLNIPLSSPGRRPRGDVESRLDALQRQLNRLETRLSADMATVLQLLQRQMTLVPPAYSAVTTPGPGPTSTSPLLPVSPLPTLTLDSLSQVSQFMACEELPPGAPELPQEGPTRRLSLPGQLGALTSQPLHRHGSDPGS
For CN(C)C(=O)C#Cc1ccccc1, the “hERG current change (%, negative = inhibition) at 10uM” value was 6.5%.
In the case of CC1CCC(C(=O)NC(C(=O)NCc2cccnc2)C(C)C)CC1 (stereo not shown), the “hERG current change (%, negative = inhibition) at 10uM” value is reported as -4.92%.
For CCOC(=O)N1CCN(c2nc3ccccc3nc2C(C#N)S(=O)(=O)c2ccc(C)cc2)CC1 (stereo not shown), the “hERG current change (%, negative = inhibition) at 10uM” value was -2.3%.
For O=C(O)c1oc2ccccc2c1CSCc1ccccc1, the “hERG current change (%, negative = inhibition) at 10uM” value was 0.44%.
CCC(C(N)=NCCc1ccc(OC)c(OC)c1)c1ccccc1.Cl (stereo not shown) was tested, and the “hERG current change (%, negative = inhibition) at 10uM” value was -6.24%.
For CC(=O)/C=C/c1ccccc1O, the “hERG current change (%, negative = inhibition) at 10uM” value was 13.7%.
In the case of O=C1N/C(=C/c2ccc(N3CCOCC3)o2)C(=O)N1c1ccccc1, the “hERG current change (%, negative = inhibition) at 10uM” value is reported as -10%.
For COC(=O)[C@H](CCSC)NC(=O)NCc1ccc(S(N)(=O)=O)cc1, the “hERG current change (%, negative = inhibition) at 10uM” value was 8.26%.
With O=C(Nc1ccc(-c2ccco2)cc1)C1CCCN(Cc2ccc(CO)o2)C1 (stereo not shown) the “hERG current change (%, negative = inhibition) at 10uM” value was -15.5%.
CC(=O)C1=C(C)NC(=O)NC1c1cccc([N+](=O)[O-])c1O (stereo not shown) was tested, and the “hERG current change (%, negative = inhibition) at 10uM” value was 54.7%.
With CC1CCCCC1NC(=O)C1CCC(CNc2c(N3CCCCC3)c(=O)c2=O)CC1 (stereo not shown) the “hERG current change (%, negative = inhibition) at 10uM” value was 10%.
CCOC(=O)C1CCN(C(=O)c2cc(C)n(C(C)(C)C)n2)CC1 was tested, and the “hERG current change (%, negative = inhibition) at 10uM” value was 9.19%.
For CCC1CCCCN1S(=O)(=O)c1ccc(S(=O)(=O)N2CCN(S(=O)(=O)CC)CC2)cc1 (stereo not shown), the “hERG current change (%, negative = inhibition) at 10uM” value was -10.7%.
C/C(=N\NC(=O)C1CCCC1)c1ccc(Cl)cc1 was tested, and the “hERG current change (%, negative = inhibition) at 10uM” value was 6.21%.
COCCCNC(=S)N1CCN(c2nc(-c3ccc(F)cc3)cs2)CC1 was tested, and the “hERG current change (%, negative = inhibition) at 10uM” value was -0.949%.
For COC(=O)C1=C(C(=O)OC)[C@@H]2N(C)c3ccccc3[C@@]23C[C@@H](CO)N=C3N1, the “hERG current change (%, negative = inhibition) at 10uM” value was 15%.
With CCOc1ccc(NC(=O)CN(C)CC(=O)Nc2ccccc2SC)cc1OCC the “hERG current change (%, negative = inhibition) at 10uM” value was -9.63%.
Cc1cc(NC(=O)CCCSc2nc(-c3ccco3)cc(C(F)(F)F)n2)n(-c2ccccc2)n1 was tested, and the “hERG current change (%, negative = inhibition) at 10uM” value was -0.233%.
Cc1ccccc1OCCN=Cc1c(O)n(C)c(=O)n(C)c1=O was tested, and the “hERG current change (%, negative = inhibition) at 10uM” value was -3.36%.
With CC(=O)c1ccc(NC2=NCCCS2)cc1 the “hERG current change (%, negative = inhibition) at 10uM” value was 13.3%.
With CCc1nnc(NC(=O)Cc2ccc(S(=O)(=O)N3CCCCC3)cc2)s1 the “hERG current change (%, negative = inhibition) at 10uM” value was 3.63%.
In the case of Cc1ccccc1N(CC(=O)O)S(C)(=O)=O, the “hERG current change (%, negative = inhibition) at 10uM” value is reported as 14.6%.
With COc1ccc(C)cc1NC(=O)C(c1ccccc1)N1CCNC(=O)C1 (stereo not shown) the “hERG current change (%, negative = inhibition) at 10uM” value was -5.31%.
With CCCCCCCc1n[nH]c(=S)n1Cc1ccccc1 the “hERG current change (%, negative = inhibition) at 10uM” value was 5.44%.
For CCOC(=O)C1CCCN(S(=O)(=O)c2cc(Br)cc3c2N(C(C)=O)CC3)C1 (stereo not shown), the “hERG current change (%, negative = inhibition) at 10uM” value was -11.8%.
Cc1cc(Cl)ccc1NC(=O)c1ccc2c(c1)OCO2 was tested, and the “hERG current change (%, negative = inhibition) at 10uM” value was 10.7%.
For COc1ccc(/C(O)=C2/C(=O)C(=O)N(CCCC(=O)O)C2c2ccc(OC)cc2)cc1 (stereo not shown), the “hERG current change (%, negative = inhibition) at 10uM” value was 11.7%.
CCc1cccc(NS(=O)(=O)c2cccc3cccnc23)c1 was tested, and the “hERG current change (%, negative = inhibition) at 10uM” value was 7.55%.
For CN(C(=O)CC1C(=O)NCCN1Cc1ccc(F)cc1)C1CCOCC1 (stereo not shown), the “hERG current change (%, negative = inhibition) at 10uM” value was 5.65%.
In the case of Cc1ccc(NP(=O)(Nc2ccc(C)cc2)Nc2ccc(C)cc2)cc1, the “hERG current change (%, negative = inhibition) at 10uM” value is reported as 7.58%.
ONC(=Nc1ccccc1)c1ccc(Cl)cc1 was tested, and the “hERG current change (%, negative = inhibition) at 10uM” value was -2.91%.
Cc1ccc(OCC(=O)O/N=C(\N)c2ccncc2)cc1C was tested, and the “hERG current change (%, negative = inhibition) at 10uM” value was -2.3%.
In the case of COc1ccc(CCn2c(N)cc(=O)[nH]c2=S)cc1OC, the “hERG current change (%, negative = inhibition) at 10uM” value is reported as -3.39%.
O=C(O)c1ccc(N=NN2CCCCC2)cc1 was tested, and the “hERG current change (%, negative = inhibition) at 10uM” value was 9.38%.
For CC(C)c1nnc(NC(=O)CSc2nnc(-c3ccco3)o2)s1, the “hERG current change (%, negative = inhibition) at 10uM” value was 5.38%.
COc1ccccc1CCNS(=O)(=O)c1cc2c3c(c1)CCN3C(=O)CC2 was tested, and the “hERG current change (%, negative = inhibition) at 10uM” value was 4.12%.
CNC(=S)N(CCN(C)C)Cc1cc2cc3c(cc2[nH]c1=O)OCO3 was tested, and the “hERG current change (%, negative = inhibition) at 10uM” value was 0.993%.
Cc1cccnc1NC(=O)C(C)Oc1ccccc1 (stereo not shown) was tested, and the “hERG current change (%, negative = inhibition) at 10uM” value was 13.5%.
In the case of C=CCN1C(=O)c2ccc(C(=O)N(C)Cc3ccc(C)o3)cc2C1=O, the “hERG current change (%, negative = inhibition) at 10uM” value is reported as 3.81%.
With CNc1nc(Cl)nc(NC(C)(C)C)n1 the “hERG current change (%, negative = inhibition) at 10uM” value was 0.796%.
COC(=O)c1ccc(N(CC(=O)NC2CCCC2)C(=O)CNC(=O)c2ccco2)cc1 was tested, and the “hERG current change (%, negative = inhibition) at 10uM” value was -11.2%.
CCc1cccc(NC(=O)C2CCN(S(=O)(=O)c3ccc4[nH]c(=O)ccc4c3)CC2)c1 was tested, and the “hERG current change (%, negative = inhibition) at 10uM” value was 3.41%.
In the case of CC(C)(CC(=O)O)CC(=O)NCc1c(Cl)cccc1Sc1ccc(Cl)cc1, the “hERG current change (%, negative = inhibition) at 10uM” value is reported as -2.93%.
For Cc1cccc(-n2c(O)c(C=Nc3c(C)n(C)n(-c4ccccc4)c3=O)c3ccccc3c2=O)n1, the “hERG current change (%, negative = inhibition) at 10uM” value was -8.58%.
In the case of COc1cc(NC(=O)CSc2ccccc2)c(C(=O)O)cc1OC, the “hERG current change (%, negative = inhibition) at 10uM” value is reported as 26.2%.
With Cc1nn(C(C)C(=O)N2CCN(c3ccccn3)CC2)c(=O)c2cc3occc3n12 (stereo not shown) the “hERG current change (%, negative = inhibition) at 10uM” value was -7.58%.
For COc1ccc(S(=O)(=O)NCc2cc(=O)n(C)c(=O)n2C)cc1F, the “hERG current change (%, negative = inhibition) at 10uM” value was 7.64%.
CCC(C)N(C(=O)COC(=O)c1nc2nc(C)cc(C)n2n1)C1CCS(=O)(=O)C1 (stereo not shown) was tested, and the “hERG current change (%, negative = inhibition) at 10uM” value was 9.86%.
In the case of O=C(c1cc(COc2ccc3ncccc3c2)on1)N1CCC(O)CC1, the “hERG current change (%, negative = inhibition) at 10uM” value is reported as 11.4%.
COc1cc(NC(=O)CSc2nnc3ccc(-c4ccncc4)nn23)cc(OC)c1 was tested, and the “hERG current change (%, negative = inhibition) at 10uM” value was -33.2%.
With COc1cc(-c2nc(C)c(C(C)=O)n2O)ccc1OCC(=O)Nc1ccc(F)cc1 the “hERG current change (%, negative = inhibition) at 10uM” value was -10.9%.
With Cc1ccc(-n2c(O)c(C=NC3CCCCC3N)c(=O)[nH]c2=O)cc1C (stereo not shown) the “hERG current change (%, negative = inhibition) at 10uM” value was -1.25%.
CCc1ccc(OCC(=O)N2c3ccccc3CCc3ccccc32)cc1 was tested, and the “hERG current change (%, negative = inhibition) at 10uM” value was -12.6%.
For CCOCCCN1C(=O)C(O)=C(C(C)=O)C1c1cccs1 (stereo not shown), the “hERG current change (%, negative = inhibition) at 10uM” value was 3.04%.
With CC1(C)Cc2nc3[nH]c(=S)n(-c4ccccc4)c(=O)c3cc2CO1 the “hERG current change (%, negative = inhibition) at 10uM” value was 20.3%.
For CC(C)(C)c1ccc(S(=O)(=O)Nc2cccc(C3OCCCO3)c2)cc1, the “hERG current change (%, negative = inhibition) at 10uM” value was 1.79%.
For COc1ccccc1Oc1ccc(Oc2ccccc2OC)cc1, the “hERG current change (%, negative = inhibition) at 10uM” value was 27.7%.
For CC(C)n1c(=S)[nH]c2ccccc21, the “hERG current change (%, negative = inhibition) at 10uM” value was 7.82%.
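Further: peak tail current of the secondary pulse compared with the same well before compound.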
